Laboratory results taken from the supplement of paper PMC4967469.
The IC50 comes from the fitted curve, where viability falls to half of the control; a limit (>, <) means that the fit lies beyond the doses tested. The AUC spans the tested range (256-fold, ending at the top dose) of the same fit; values near 1 show little effect. For part of these data: Where the top dose is marked as inferred, it was calculated from the reported fits.

What was measured:
Test in all cases: Viability of human cancer cell lines after 72 h of drug (GDSC screen)
CP724714 = compound: COCC(=O)NC/C=C/c1ccc2ncnc(Nc3ccc(Oc4ccc(C)nc4)c(C)c3)c2c1 [CP724714]; settings: top dose 10.24 µM; top dose inferred
Protocol: (§1)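 Human cancer cell lines in 384-well plates, medium with 10% serum, drug for 72 h over a 256-fold dose range (nine 2-fold or five 4-fold steps up to the top dose). Adherent lines were fixed and stained with the nucleic acid dye Syto60, suspension lines read with resazurin; signal relative to control wells, capped at 0 and 100%. One two-parameter sigmoid per drug and line, fitted in a mixed model over all curves with the slope shared within a line.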

Bortezomib = compound: CC(C)C[C@H](NC(=O)[C@H](Cc1ccccc1)NC(=O)c1cnccn1)B(O)O [Bortezomib]; settings: top dose 0.02 µM
Protocol: as §1

CX-5461 = compound: Cc1cnc(CNC(=O)c2c(=O)c3ccc(N4CCCN(C)CC4)nc3n3c2sc2ccccc23)cn1 [CX-5461]; settings: top dose 10.24 µM; top dose inferred
Protocol: as §1

Obatoclax mesylate = compound: COC1=CC(c2cc3ccccc3[nH]2)=N/C1=C\c1[nH]c(C)cc1C [Obatoclax mesylate]; settings: top dose 16 µM
Protocol: as §1

STF-62247 = compound: Cc1cccc(Nc2nc(-c3ccncc3)cs2)c1 [STF-62247]; settings: top dose 10.24 µM; top dose inferred
Protocol: as §1

Paclitaxel = compound: CC(=O)O[C@H]1C(=O)[C@@]2(C)[C@H]([C@H](OC(=O)c3ccccc3)[C@]3(O)C[C@H](OC(=O)[C@H](O)[C@@H](NC(=O)c4ccccc4)c4ccccc4)C(C)=C1C3(C)C)[C@]1(OC(C)=O)CO[C@@H]1C[C@@H]2O [Paclitaxel]; settings: top dose 0.1024 µM
Protocol: as §1

| Cell Line | AUC (CP724714) | IC50 (CP724714) [nM] | AUC (Bortezomib) | IC50 (Bortezomib) [nM] | AUC (CX-5461) | IC50 (CX-5461) [nM] | AUC (Obatoclax mesylate) | IC50 (Obatoclax mesylate) [nM] | AUC (STF-62247) | IC50 (STF-62247) [nM] | AUC (Paclitaxel) | IC50 (Paclitaxel) [nM] |
| --- | --- | --- | --- | --- | --- | --- | --- | --- | --- | --- | --- | --- |
| KM-H2 (Hodgkin lymphoma, suspension) | 0.993 | > 10200 | 0.584 | 2.04 | 0.993 | > 10200 | 0.445 | 726 | 0.985 | > 10200 | 0.778 | 35.1 |
| KMOE-2 (acute myeloid leukaemia, suspension) | 0.984 | > 10200 | 0.544 | 1.62 | 0.882 | 8860 | 0.299 | 292 | 0.877 | 8420 | 0.957 | > 102 |
| KNS-42 (glioma, adherent) | 0.982 | > 10200 | 0.307 | 0.321 | 0.767 | 4530 | 0.369 | 405 | 0.977 | > 10200 | 0.577 | 10.9 |
| KNS-81-FD (glioma, adherent) | 0.981 | > 10200 | 0.599 | 2.57 | 0.73 | 3730 | 0.348 | 326 | 0.981 | > 10200 | 0.88 | > 102 |
| KP-N-YN (neuroblastoma, adherent) | 0.954 | > 10200 | 0.711 | 5.26 | 0.945 | > 10200 | 0.931 | > 16000 | 0.986 | > 10200 | 0.898 | > 102 |
| KP-N-YS (neuroblastoma, adherent) | 0.959 | > 10200 | 0.887 | > 20 | 0.463 | 498 | 0.471 | 823 | 0.949 | > 10200 | 0.838 | 84 |
| KS-1 (glioma, adherent) | 0.924 | > 10200 | 0.321 | 0.347 | 0.842 | 9930 | 0.374 | 410 | 0.974 | > 10200 | 0.479 | 5.52 |
| KU812 (chronic myeloid leukaemia, suspension) | 0.954 | > 10200 | 0.483 | 1.13 | 0.233 | 118 | 0.504 | 1020 | 0.988 | > 10200 | 0.695 | 21.3 |
| L-428 (Hodgkin lymphoma, suspension) | 0.979 | > 10200 | 0.759 | 6.22 | 0.993 | > 10200 | 0.367 | 451 | 0.99 | > 10200 | 0.893 | 96 |
| L-540 (Hodgkin lymphoma, suspension) | 0.99 | > 10200 | 0.414 | 0.749 | 0.99 | > 10200 | 0.297 | 289 | 0.984 | > 10200 | 0.797 | 42.4 |
| L-1236 (Hodgkin lymphoma, suspension) | 0.986 | > 10200 | 0.584 | 2.04 | 0.991 | > 10200 | 0.717 | 3660 | 0.973 | > 10200 | 0.902 | 96.8 |
| LAMA-84 (chronic myeloid leukaemia, suspension) | 0.981 | > 10200 | 0.583 | 2.12 | 0.693 | 2250 | 0.628 | 2270 | 0.953 | > 10200 | 0.863 | 90.8 |
| LAN-6 (neuroblastoma, adherent) | 0.927 | > 10200 | 0.577 | 2.11 | 0.983 | > 10200 | 0.571 | 1620 | 0.98 | > 10200 | 0.967 | > 102 |
| LB373-MEL-D (melanoma, adherent) | 0.978 | > 10200 | 0.413 | 0.728 | 0.989 | > 10200 | 0.137 | 74.9 | 0.982 | > 10200 | 0.775 | 39.6 |
| LB771-HNC (head and neck, adherent) | 0.956 | > 10200 | 0.344 | 0.412 | 0.957 | > 10200 | 0.259 | 169 | 0.965 | > 10200 | 0.69 | 25.1 |
| LB831-BLC (bladder, adherent) | 0.986 | > 10200 | 0.38 | 0.579 | 0.987 | > 10200 | 0.37 | 436 | 0.984 | > 10200 | 0.653 | 17.2 |
| LB996-RCC (kidney, adherent) | 0.981 | > 10200 | 0.645 | 3.38 | 0.979 | > 10200 | 0.385 | 458 | 0.982 | > 10200 | 0.794 | 55.8 |

| Cell Line | AUC (CP724714) | IC50 (CP724714) [nM] | AUC (Bortezomib) | IC50 (Bortezomib) [nM] | AUC (CX-5461) | IC50 (CX-5461) [nM] | AUC (Obatoclax mesylate) | IC50 (Obatoclax mesylate) [nM] | AUC (STF-62247) | IC50 (STF-62247) [nM] | AUC (Paclitaxel) | IC50 (Paclitaxel) [nM] |
| --- | --- | --- | --- | --- | --- | --- | --- | --- | --- | --- | --- | --- |
| LB1047-RCC (kidney, adherent) | 0.937 | > 10200 | 0.581 | 2.15 | 0.922 | > 10200 | 0.361 | 393 | 0.954 | > 10200 | 0.706 | 26.4 |
| LB2241-RCC (kidney, adherent) | 0.984 | > 10200 | 0.461 | 0.966 | 0.984 | > 10200 | 0.381 | 451 | 0.982 | > 10200 | 0.984 | > 102 |
| LB2518-MEL (melanoma, adherent) | 0.969 | > 10200 | 0.366 | 0.524 | 0.987 | > 10200 | 0.262 | 201 | 0.982 | > 10200 | 0.822 | 64.2 |
| LC4-1 (lymphoblastic leukaemia, suspension) | 0.977 | > 10200 | 0.54 | 1.63 | 0.841 | 8260 | 0.405 | 533 | 0.884 | > 10200 | 0.729 | 31 |
| LC-2-ad (lung adenocarcinoma, adherent) | 0.972 | > 10200 | 0.508 | 1.31 | 0.783 | 4410 | 0.124 | < 62.5 | 0.933 | > 10200 | 0.256 | 1.25 |
| LNCaP-Clone-FGC (prostate, adherent) | 0.923 | > 10200 | 0.957 | > 20 | 0.846 | 9070 | 0.61 | 2090 | 0.905 | > 10200 | 0.975 | > 102 |
| LOUCY (T-cell lymphoblastic leukaemia, suspension) | 0.988 | > 10200 | 0.31 | 0.413 | 0.204 | 107 | 0.032 | < 62.5 | 0.96 | > 10200 | 0.513 | 6.89 |
| LS-123 (large intestine, adherent) | 0.943 | > 10200 | 0.523 | 1.48 | 0.903 | > 10200 | 0.189 | 81.9 | 0.978 | > 10200 | 0.661 | 21 |
| LS-513 (large intestine, adherent) | 0.962 | > 10200 | 0.888 | > 20 | 0.916 | > 10200 | 0.891 | > 16000 | 0.986 | > 10200 | 0.957 | > 102 |
| LU-65 (large cell lung carcinoma, suspension) | 0.974 | > 10200 | 0.731 | 6.48 | 0.895 | > 10200 | 0.35 | 355 | 0.916 | > 10200 | 0.809 | 65.5 |
| LU-134-A (small cell lung carcinoma, suspension) | 0.975 | > 10200 | 0.664 | 3.69 | 0.593 | 1170 | 0.832 | 11100 | 0.936 | > 10200 | 0.786 | 47.3 |
| LU-139 (small cell lung carcinoma, suspension) | 0.975 | > 10200 | 0.67 | 4.28 | 0.855 | > 10200 | 0.595 | 1970 | 0.973 | > 10200 | 0.814 | 76.7 |
| LU-165 (small cell lung carcinoma, suspension) | 0.981 | > 10200 | 0.868 | > 20 | 0.975 | > 10200 | 0.825 | 11300 | 0.987 | > 10200 | 0.964 | > 102 |
| MC116 (B-cell lymphoma, suspension) | 0.999 | > 10200 | 0.678 | 3.35 | 0.998 | > 10200 | 0.133 | 128 | 0.999 | > 10200 | 0.426 | 4.24 |
| MC-CAR (haematopoietic neoplasm, suspension) | 0.986 | > 10200 | 0.904 | > 20 | 0.61 | 1240 | 0.166 | 112 | 0.934 | > 10200 | 0.728 | 26.1 |
| MDST8 (large intestine, adherent) | 0.985 | > 10200 | 0.65 | 3.23 | 0.961 | > 10200 | 0.817 | 8840 | 0.985 | > 10200 | 0.845 | 72.8 |
| ME-1 (acute myeloid leukaemia, suspension) | 0.989 | > 10200 | 0.532 | 1.54 | 0.926 | > 10200 | 0.605 | 1980 | 0.987 | > 10200 | 0.964 | > 102 |
